In PubChem BioAssay (NCI):
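Protocol summary: plate cells (96-well), add compound at 5 concentrations, incubate 48 h, interpolate endpoints linearly. Here, GI50 denotes the concentration required for 50% inhibition of growth. TGI denotes the concentration required for complete inhibition of growth.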

system: NCI-H322M lung; assay: NCI anticancer screen, dose series, 48 h

`O=C(NN1C(=O)/C(=C/C=C/c2ccc([N+](=O)[O-])o2)SC1=S)c1ccc(O)cc1` and `O=C(NN1C(=O)/C(=C/C=C/c2ccc([N+](=O)[O-])o2)SC1=S)c1ccncc1` are within 1.5-fold of each other in GI50: 5.55 µM for the first, 5.58 µM for the second.

First: C[C@H](Nc1nc(NCCc2ccccc2)nc2ccccc12)c1ccccc1
Second: Nc1nc2cc(-c3ccc4ncnc(NCc5ccccc5)c4c3)ccc2o1
The GI50 of the first is 1.7-fold lower: 1.96 µM for the first, 3.42 µM for the second.

For `O=C(/C=C/c1ccccc1Cl)c1nc2ccccc2n1Cc1ccc(F)cc1`, the GI50 was 9.98 µM.

`O=C(NN1C(=O)/C(=C/C=C/c2ccc([N+](=O)[O-])o2)SC1=S)c1ccc(O)cc1` and `O=C(NN1C(=O)/C(=C/C=C/c2ccc([N+](=O)[O-])o2)SC1=S)c1ccncc1` are within 1.5-fold of each other in TGI: 18.7 µM for the first, 18.5 µM for the second.

Compared with `C[C@H](Nc1nc(NCCc2ccccc2)nc2ccccc12)c1ccccc1`, `Nc1nc2cc(-c3ccc4ncnc(NCc5ccccc5)c4c3)ccc2o1` is 2.5-fold higher in TGI: 5.22 µM for the first, 13.2 µM for the second.

In the case of `O=C(/C=C/c1ccccc1Cl)c1nc2ccccc2n1Cc1ccc(F)cc1`, the TGI was greater than 100 µM.
